Source: PMC6919601, “Identification of Plasmodium dipeptidyl aminopeptidase allosteric inhibitors by high throughput screening” (PLoS ONE, 2019)
Where “and” joins values, the source holds several entries; their conditions need not be identical. Identical values can stand only once. Out of some 110,000 compounds screened, about 230 (0.21%) showed an effect of 50% or more. Some of the results follow.

biological target: DPAP1 (Plasmodium falciparum, UniProt Q8IIJ9); assay: primary screen, percent inhibition; read by cleavage of a fluorogenic dipeptide substrate; higher = more effect of the substance; design: species or system P. falciparum D10 trophozoite lysates; single well
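Also: 30 min substrate incubation versus DMSO and 10 µM JCP410 controls.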

DPAP1, sequence (Q8IIJ9 whole entry, looked up): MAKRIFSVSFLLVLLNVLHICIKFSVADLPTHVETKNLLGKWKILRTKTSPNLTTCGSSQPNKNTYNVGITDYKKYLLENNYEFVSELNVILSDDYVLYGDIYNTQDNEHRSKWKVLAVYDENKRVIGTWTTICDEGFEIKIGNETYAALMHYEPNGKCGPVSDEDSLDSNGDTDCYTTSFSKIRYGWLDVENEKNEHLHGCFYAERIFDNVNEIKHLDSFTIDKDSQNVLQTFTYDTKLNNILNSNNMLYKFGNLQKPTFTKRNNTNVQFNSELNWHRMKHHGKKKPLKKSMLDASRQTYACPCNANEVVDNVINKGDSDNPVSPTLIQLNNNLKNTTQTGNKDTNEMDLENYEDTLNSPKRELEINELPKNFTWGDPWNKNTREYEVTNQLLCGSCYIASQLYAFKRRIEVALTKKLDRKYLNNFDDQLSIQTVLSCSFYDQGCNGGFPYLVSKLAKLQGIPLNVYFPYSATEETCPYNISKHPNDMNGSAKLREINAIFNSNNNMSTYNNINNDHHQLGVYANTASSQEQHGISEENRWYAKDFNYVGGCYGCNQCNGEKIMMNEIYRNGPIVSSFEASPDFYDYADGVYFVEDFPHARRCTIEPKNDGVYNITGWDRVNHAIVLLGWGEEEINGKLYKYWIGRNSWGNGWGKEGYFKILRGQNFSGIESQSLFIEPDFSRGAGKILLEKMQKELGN

Row | SMILES | % Inhibition @ 10 uM
1 | COc1ccc(/C=C2N=C(/C=C/c3ccccc3)OC\2=O)c(OC)c1OC | 0.775%
2 | O=C(c1ccc(CS(=O)c2cccc(Cl)c2)o1)N1CCCCCC1 (stereo not shown) | 5.15%
3 | COc1ccc(-c2nnnn2CCOCCn2nnnc2-c2ccc(OC)cc2)cc1 | -0.834%
4 | COc1cc(CN2CCN(Cc3ccc(Br)cc3)CC2)cc2c1OCO2 | -3.68%
5 | CC1=C(C(=O)Nc2cc(C)ccn2)C(c2cccc(Br)c2)C2=C(O)CC(C)(C)CC2=N1 (stereo not shown) | -2.07%
6 | CCOC(=O)c1cc2ccccc2n1CC(=O)c1ccccc1 | 1.63%
7 | COc1cc(C2C(C(=O)/C=C/c3ccccc3)=C(O)C(=O)N2CCCCCC(=O)O)ccc1O (stereo not shown) | -7.58%
8 | N#Cc1c2n(c3c(=O)n(CC(=O)c4ccccc4)cnc13)CCCC2 | 1.82%
9 | c1ccc(Oc2cc(-n3cncn3)nc(-c3ccccc3)n2)cc1 | 4.03%
10 | N#CC1=C(SCC(=O)Nc2ccccc2)NC(=O)C(C#N)C12CCCC2 (stereo not shown) | -4.26%
11 | Cc1nc(O)nc(O)c1NS(=O)(=O)c1ccc2c(c1)n(C)c(=O)n2C | 0.161%
12 | C=CCn1c(=N)c(S(=O)(=O)c2ccccc2)cc2c(=O)n3cccc(C)c3nc21 | 3.62%
13 | O=C(O)CCCC(=O)NCCc1ccncc1 | -2.9%
14 | O=C(O)/C=C/c1cn(-c2ccccc2)nc1-c1ccccc1 | -0.178%
15 | COc1ccccc1C(=O)NC1(C(F)(F)F)C(=O)Nc2c1c(=O)n(C)c(=O)n2C (stereo not shown) | -5.27%
16 | CCOC(=O)NC1c2ccccc2CSc2ccccc21 (stereo not shown) | 0.583%
17 | Cc1c2cnn(CC(=O)NCCCSC3CCCCC3)c(=O)c2c(C)n1Cc1ccccc1 | 1.22%
18 | NCCN1C(=O)S/C(=C/c2ccc(F)c(Oc3ccccc3)c2)C1=O | 1.03%
19 | NC(=O)c1c(NC(=O)CN2CCCCC2)sc2c1CCCC2 | -2.62%
20 | CC(O)c1cccc(NC(=O)c2cnn3c2NC(c2ccccc2)CC3C(F)(F)F)c1 (stereo not shown) | -2.87%
21 | CCO/C(O)=C1/C(C)=Nc2nc3ccccc3n2C1/C=C/c1ccccc1 (stereo not shown) | -5.2%
22 | COC(=O)c1cc(-c2cccnc2)nc2ccccc12 | 4.42%
23 | COc1ccc(OC)c(/C=C(/C#N)C(=O)Nc2ccc(Cl)cc2)c1 | -0.0494%
24 | COc1ccc(CNC(=O)CCCNS(=O)(=O)c2cccc3nonc23)cc1 | 0.457%
25 | CNC(=O)C1CC(=O)N(CCc2ccccc2)/C(=N/c2ccc(OC)cc2)S1 (stereo not shown) | -7.63%

Row | SMILES | % Inhibition @ 10 uM
26 | CCOc1ccc(CCNC(=O)CS(=O)Cc2nc(-c3ccccc3F)oc2C)cc1OCC (stereo not shown) | -1.05%
27 | N#CCNC(=O)[C@H](CC1CCCCC1)NC(=O)c1cnc2ccccc2c1 | 2.86%
28 | CCCCOCC(O)Cn1cnc2ccccc21 (stereo not shown) | -5%
29 | Cc1cc(C)n(-c2cc(-c3ccccc3)nc(C)n2)n1 | 6.09%
30 | CCOC(=O)N1CCC(Nc2nc3ccccc3n3c(CC)nnc23)CC1 | -8.08%
31 | COc1cc(CN2CCN(Cc3ccccc3)CC2)cc2c1OCO2 | -3.41%
32 | O=C(CN(C1CCCCC1)S(=O)(=O)c1ccccc1)N1CCCCCC1 | 1.39%
33 | CC(=O)Nn1cc2c(=O)n(C)c(=O)n(C)c2c1 | -3.75%
34 | CCc1nnc(/N=C/c2c(C)nn(-c3ccc(F)cc3)c2O)s1 | -2.39%
35 | Cc1ccc(CNS(=O)(=O)Cc2ccccc2)cc1 | -1.5%
36 | CCN(CC)S(=O)(=O)c1ccc2c(c1)Cc1cc(S(=O)(=O)N(CC)CC)ccc1-2 | 3.09%
37 | O=S1(=O)N=C(Nc2ccc(Cl)cc2)c2ccccc21 | 1.67%
38 | C=CCN1CCN(c2ccncc2S(=O)(=O)NC(C)C)CC1 | -10.2%
39 | O=C(COc1ccc(Cl)cc1Cl)Nc1cccc2c(NC(=O)COc3ccc(Cl)cc3Cl)cccc12 | -4.96%
40 | CC1=CC(C)C2(CO)COC(c3ccc(O)cc3)C1C2C (stereo not shown) | -1.85%
41 | CCCCN(C)C(=O)C1CCCN(c2nnc(C)c3c(C)n(-c4ccc(Cl)cc4)nc23)C1 (stereo not shown) | 7.09%
42 | COc1ccc(-n2c(/C=C/c3ccc(O)cc3)nc3ccccc3c2=O)cc1 | 8.36%
43 | Cc1ccc(S(=O)(=O)NCc2ccc(C(=O)NCCCOC(C)C)cc2)cc1 | -1.54%
44 | Cc1ccc(CCN2CC(C(=O)NCCN3CCCCCC3)CC2=O)cc1 (stereo not shown) | 4.81%
45 | COc1cccc(CN(C)CCN(C)C)c1OC | 5.03%
46 | COc1ccc(C(=O)N(C(C)C)C(C)C)c(OC)c1 | -0.318%
47 | CCOc1ccccc1NC(=O)Cc1ccc(OC)cc1 | 3.13%
48 | Cc1[nH]nc2c1C(c1ccccn1)N(C)C2=O (stereo not shown) | 3.88%
49 | CCCC12CN3CN(C1)CC(CCC)(C3)C2=O | -2.86%
50 | COc1cc(C2NC(=O)NC(C)=C2C(=O)OCC(C)C)ccc1OCc1ccccc1 (stereo not shown) | 6.94%

Row | SMILES | % Inhibition @ 10 uM
51 | O=[N+]([O-])c1ccc(S(=O)(=O)NCCc2ccccc2)cc1 | 17.9%
52 | COc1cccc(C(=O)Nc2ccc(F)c(F)c2)c1 | -5.82%
53 | Cc1nc2ccccc2c2c1C(=O)N(Cc1ccccc1Cl)C2=O | -6.5%
54 | CCc1sc(NC2=NS(=O)(=O)c3ccccc32)nc1-c1ccccc1 | 2.31%
55 | COc1ccc(CN2CNc3c(c(C)nn3-c3ccccc3)C2)cc1 | -1.08%
56 | O=C(CCNS(=O)(=O)c1ccc2[nH]c(-c3ccccc3)nc2c1)NCc1ccc(F)cc1 | -0.232%
57 | CC1(C(=O)O)COC(c2ccccc2)OC1 (stereo not shown) | -3.04%
58 | CCOC(=O)C1CCCN(C/C=C/c2ccc(N(C)C)cc2)C1 (stereo not shown) | -1.21%
59 | CC1(C)Cc2nc3sc4c(N5CCNCC5)ncnc4c3cc2CS1 | 3.29%
60 | Cc1ccc(NC(=O)c2ccc(Cl)c([N+](=O)[O-])c2)cc1C | 5.43%
61 | Cc1ccc(C(=O)O)cc1S(=O)(=O)N1CCC(C)CC1 | -3.27%
62 | O=C(CN1CCN(Cc2ccccc2)C1=O)NCCN1CCOCC1 | -0.984%
63 | COc1ccc(C(CC(=O)O)NC(=O)CSc2nnc(N)s2)cc1 (stereo not shown) | -0.834%
64 | Cc1ccc(C(=O)NCCNS(=O)(=O)c2ccccc2)cc1 | 0.408%
65 | COc1ccc(-c2c(C#N)c(N)nc(OC)c2C#N)cc1OC | -1.22%
66 | Cn1cccc1Cc1nnc(SCC(N)=O)n1C | 3.6%
67 | CC(=O)c1ccc(NCN2C(=O)CCC2=O)cc1 | 4.88%
68 | COC(=O)C1=C(C)N(Cc2ccc(OC)cc2)C(=O)/C1=C\c1ccco1 | -9.18%
69 | COc1ccc(OC)c(C(=O)c2ccccc2)c1 | 3.61%
70 | O=C(c1ccccc1[N+](=O)[O-])N1CCN(c2ccc([N+](=O)[O-])cc2)CC1 | 4.57%
71 | c1ccc(CC(NCc2ccncc2)c2ccccc2)cc1 (stereo not shown) | -5.16%
72 | Cc1nc(Nc2nc3ccccc3o2)nc(C)c1C | 2.36% and 3.24%
73 | COc1ccc(-n2c(C)cc(/C=C3/NC(=O)N(c4ccccc4)C3=O)c2C)cc1 | -7.3%
74 | COc1ccc(C(=O)Nc2ccc(NC(=O)c3ccco3)c(OC)c2)cc1Br | -1.28%
75 | CSc1nc(N)c2c3c(sc2n1)CN(C)CC3 | 3.32%

Row | SMILES | % Inhibition @ 10 uM
76 | Cc1cc(Cl)ccc1OCC(=O)NCCC1=CCCCC1 | 2.13%
77 | Cc1ccccc1NC1CC(C)Nc2c(C)cccc21 (stereo not shown) | 7.09%
78 | O=C(NCc1cccs1)c1cc2c(O)nc3ccccc3c2s1 | 6.08%
79 | CCOc1ccc(NC(=O)COc2c(C)cccc2C)cc1 | -1.26%
80 | O=C1C2(c3ccccc3)CN(CCCO)CC1(c1ccccc1)CN(CCCO)C2 | -2.9%
81 | Cc1cccc(-c2nc(CSc3nnc(C)n4c3cc3oc(C)cc34)c(C)o2)c1 | 22.6%
82 | Cc1nc(NC(=O)C2C3CCC(C3)C2C(=O)O)sc1-c1ccccc1 (stereo not shown) | 3.32%
83 | Cc1ccc(C(=O)NC(=O)CSc2nncn2C)cc1 | -1.24%
84 | Cc1cc(/C=C2/NC(=O)N(Cc3ccccc3F)C2=O)c(C)n1C(C)C | 14.2%
85 | O=C(NCc1ccco1)/C(=C\c1ccco1)NC(=O)c1ccsc1 | 2.69%
86 | CCOC(=O)C1=C(CN2CCC(C(N)=O)CC2)NC(=O)NC1c1ccc(OC(C)C)cc1 (stereo not shown) | -1.03%
87 | Cc1nn(Cc2c(F)cccc2Cl)c(C)c1NC(=O)c1nn(C)cc1Br | -0.545%
88 | CCOc1ccc(-c2cc(C(=O)OC)[nH]n2)cc1 | -5.15%
89 | Cc1cc(NC(=O)C2CC2c2ccccc2)no1 (stereo not shown) | 21.1%
90 | Cc1nn(-c2ccccc2)c(-n2cccc2)c1C(=O)N1CCC(C(=O)NC(C)c2ccccc2)CC1 (stereo not shown) | 0.137%
91 | COc1ccc(S(=O)(=O)N2CCN(c3ccccc3)CC2)cc1OC | 0.162%
92 | CC[C@H](NC(=O)C(CC(C)(C)C)OC(=O)N1CCOCC1)C(=O)c1nc2ccccc2o1 (stereo partly shown) | -3.48%
93 | COc1ccc(C2=CC(c3ccc(C)cc3)n3ncnc3N2)cc1 (stereo not shown) | 6.77%
94 | COc1ccc(/C=C/c2nc(C#N)c(NC3CC3)o2)cc1OC | 2.54%
95 | Cc1cc(O)c(C(=O)/C=C/c2cccnc2)c(=O)o1 | -1.8%
96 | Cc1ccc(C2CC(C(F)(F)F)n3nc(C(=O)Nc4cccc(C(C)O)c4)cc3N2)cc1 (stereo not shown) | 2.65%
97 | CC(C)(O)C#Cc1ccc(C(=O)N2CCN(C(=O)c3ccc(C#CC(C)(C)O)cc3)CC2)cc1 | 3.04%
98 | CCCC12CN(C(=O)c3ccccc3)CC(C)(CN(C(=O)c3ccccc3)C1)C2=O | 2.25%
99 | CCOC(=O)C1=C(C)N=c2s/c(=C/c3ccccc3O)c(=O)n2C1c1ccc2c(c1)OCO2 (stereo not shown) | 4.42%
100 | CC1=C(C(=O)OCc2ccccc2)C(c2ccc(Br)cc2)C(C#N)=C(N)O1 (stereo not shown) | -1.48%
